Test results from PMC12136788.
Residue numbers refer to the chain shown, from its start. The list shows a part of the results.

T1: UNK ZnF1-3 (human, UniProt Q9C0B0 31-174)
T1 sequence: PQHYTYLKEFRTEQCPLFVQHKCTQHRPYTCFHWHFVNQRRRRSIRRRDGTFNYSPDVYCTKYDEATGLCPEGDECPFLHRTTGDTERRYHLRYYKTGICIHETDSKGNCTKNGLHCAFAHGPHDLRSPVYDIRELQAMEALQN

B1: chr14:103803487:103803488:+_ENSG00000100664_ENST00000558506|hu_mus|FALSE|FALSE (ssRNA)
RNA: GGGAGUUCUACAGUCCGACGAUCGAGUUUAUGAUGUGUGUCAAGCAUGCCUCGGUACCCACAGGCUUUACAAGAAUUACCUAUUGUUUGCUUCUUUGGAUUGACAUGCAGAUCUGUUUCAGGAUUCUCACACUCAGGACAGAGCAACAGAGGAUUGAGCAUCA
B2: chr14:89307221:89307222:+_ENSG00000165533_ENST00000346301|hu_mus|hu_hu_hu_mus_False|68_88 (ssRNA)
RNA: GGGAGUUCUACAGUCCGACGAUCUCCUGUUUGGUUAGUGCCAGGGAGUUUCAAAGAUGUGCCAGGGCGUGGAACUUGAGCAAUAGCAUUUUCAUCCAGGAUCAUUUCAGCAAUUCCUUCCUGGUCCACAUCAAUUUCAUCUAUCAACAGAGGAUUGAGCAUCA
B3: chr11:87793471:87793472:-_ENSMUSG00000020483_ENSMUST00000020775|mus_mus|mus_mus_mus_hu_False|8_28 (ssRNA)
RNA: GGGAGUUCUACAGUCCGACGAUCUGGACUUGAAAAUAAAAGAAUAAGCUGGAUCCCCCACCCCCCCACAUUGUCAACCCUACACGAGAGUUUUGAAGGCGACUCAUGAAUCAGCAGAGCUCAAACGAAUGACAACCCCCCACCCAACAGAGGAUUGAGCAUCA
B4: chr14:76907486:76907487:+_ENSMUSG00000022010_ENSMUST00000022587|mus_mus|motif|central (ssRNA)
RNA: GGGAGUUCUACAGUCCGACGAUCACAAGUAGAACAGGUAAAUACAGUGGGGACUGUGUGGGGGACAUGCGCAGAACGACGGUACAGGUGAGGUGCAGAAACCCCUACUGGGAAAUCCACUUCCUUAGCAACUGACCACUUCUCCAACAGAGGAUUGAGCAUCA
B5: chr1:110565788:110565789:+_ENSG00000168710_ENST00000369799|hu_mus|FALSE|FALSE (ssRNA)
RNA: GGGAGUUCUACAGUCCGACGAUCAUUCUGUCUUUAAUGCCUGUUUCUCUGAUCAGUGGAAAGAGAGAAGUAAACAUUUCUAGUACCUAUCAUUAACACAUAACCCAUCUUUGAAGGAUCACAAGCUAGAACACGUUGAGGACUCAACAGAGGAUUGAGCAUCA
B6: chr11:77336104:77336105:-_ENSG00000074201_ENST00000525064|hu_mus|hu_hu_hu_mus_False|48_48 (ssRNA)
RNA: GGGAGUUCUACAGUCCGACGAUCCUCACACAUUGCUGUGAACAUCGCCUCCAAUGCUGACUUAUCACUGGGCACAAAUCGAAAUUCAGUAAUAGGUUCAACAUCAUCAUUGUCUUCCUCAUCUUCAUCAGAGAGAGGUUCUUUCAACAGAGGAUUGAGCAUCA
B7: chr11:77336104:77336105:-_ENSG00000074201_ENST00000525064|hu_mus|hu_hu_hu_mus_False|28_88 (ssRNA)
RNA: B6 RNA with U54C, U89A, A93G, U110C, G111A, U112C, C113U, U114G
B8: chr2:29001751:29001752:+_ENSG00000213639_ENST00000296122|perfect_dup|motif|central (ssRNA)
RNA: GGGAGUUCUACAGUCCGACGAUCAGCCAAUAGCAAACAGAUGGUUUCCAAAGACUGCUUUCCUCUGUCCACAUAAUCUCCGGAGAAAAGAUAGUUGGCUUCUGGUGGAAAACCUCCAUAUUCAAAUAAUCUUAGUAAGUCUGUCAACAGAGGAUUGAGCAUCA
B9: chr3:39104626:39104627:+_ENSG00000114742_ENST00000302313|hu_hu|FALSE|FALSE (ssRNA)
RNA: GGGAGUUCUACAGUCCGACGAUCGUGCUGAUUGACACUCCAUAUUCUUAUGAUAGAGUCUCGACCGGCUGUGAAAAGUCUAUUUAGUGCUGGAUCCAGCUGCAGAGCAUUGACUCCAUUUCGGUUGUACUUCUCCACUUCAUCCAACAGAGGAUUGAGCAUCA
B10: chrX:148277548:148277549:+_ENSMUSG00000025261_ENSMUST00000112622|mus_hu|FALSE|FALSE (ssRNA)
RNA: GGGAGUUCUACAGUCCGACGAUCGAGGACUGCCAGCACCACUUGCAUAUCAGAGGAAGCCAAUAAAGUUGUCAAAUGCUCUAUGGAACUGUACAGAUGCCGGGAAAAGCUGUACUCAAUGAGCAAGGCUGUGAAGUUCAACACCAACAGAGGAUUGAGCAUCA
B11: chr16:23113652:23113653:+_ENSMUSG00000022884_ENSMUST00000115341|mus_hu|FALSE|FALSE (ssRNA)
RNA: GGGAGUUCUACAGUCCGACGAUCCCACAAGUAUAUUAUUAAAUGAUAGAGAACAUCUAAUACAACCAUUUCUACAGAACUAGGAAAUAAAUUUCUAAGAAAGAAAGAUUUUACAGACCCCAUCUUUUAUACCCACCCCAACAGCAACAGAGGAUUGAGCAUCA
B12: chr3:196555327:196555328:+_ENSG00000180370_ENST00000327134|hu_hu|FALSE|FALSE (ssRNA)
RNA: GGGAGUUCUACAGUCCGACGAUCUUCAGGUUAUGCAGACCAUUUCUUUAAACCCCAAAAAGAGUAAUAAUUUUCAUAUACUAAAAGGCUUCUUGUAGAAAAUGGAAAAAAGAGUAUGAGGCCACAGCAGUGAUGUUAACGGUUCAACAGAGGAUUGAGCAUCA
B13: chrX:71549400:71549401:+_ENSMUSG00000019087_ENSMUST00000019231|mus_hu|mus_mus_mus_hu_False|68_68 (ssRNA)
RNA: GGGAGUUCUACAGUCCGACGAUCGCAGUAGGAAGAGGGAAGCUCUUCAGUCCAGUGCGCUGCAGGGAGAAACAUGAACAACACGGACACCGUCCCACCCUCAACCCCCCCACUGGCACAGGGUCACACAAUCUGGGUCAAAGACAACAGAGGAUUGAGCAUCA
B14: chr19:8913615:8913616:-_ENSMUSG00000071658_ENSMUST00000096259|mus_hu|mus_mus_mus_hu_False|1_48 (ssRNA)
RNA: GGGAGUUCUACAGUCCGACGAUCAGGGUACCAAAACCUUCUGCCUGAAAUGGGUGCCCCACCCAGUAGGGAGUUGCAGCUGAAAGUAUCCGUAGCAGAAGCAGUGACUAUACGAAAGGAGGCCCCUGGGGAGGGCCCGAGAUCCAACAGAGGAUUGAGCAUCA
B15: 100204454_100204574_1612_CDS_ENSG00000125304_ENST00000376387|human|control|control (ssRNA)
RNA: GGGAGUUCUACAGUCCGACGAUCCUUAAAACCAAAGUAUGCACCAAUAAACGUCAGAGGCACAGAUAUGCAGAACCAAAGGGCCAAUAUGGCAACCAGUGUCCCAAAAGGAAUAGCUGCUGAAGAUCCUUCUCCCCAGAGGAUCAACAGAGGAUUGAGCAUCA
B16: chr4:95585729:95585730:+_ENSG00000163110_ENST00000317968|hu_mus|motif|central (ssRNA)
RNA: GGGAGUUCUACAGUCCGACGAUCAAAGGUAAGACCAAUGAUAAGAGCAAAGCAAGUACACUCACUAAACAGAAAAGUUACUGCCGGCUCAUAAAAUUUAUUUAGAUUUCUACUUACUAUUUUAAAGAUAAAAUGGUUUUAUUACAACAGAGGAUUGAGCAUCA
B17: chr2:44428564:44428565:+_ENSG00000138032_ENST00000378551|hu_mus|FALSE|FALSE (ssRNA)
RNA: GGGAGUUCUACAGUCCGACGAUCGAGAGCAGAGCCUGAUUUGUCAGCUGCCCUGAAGUCUUCAUUGGUGGUGAUGUGUUCUAAUAGAUGUGUUGAACAGUAAUUUGCCACUCGGGAUCCAGCAUGACCGUCAUAAACUGCAAACAACAGAGGAUUGAGCAUCA
B18: chr5:147795600:147795601:+_ENSG00000145868_ENST00000340253|hu_hu|FALSE|FALSE (ssRNA)
RNA: GGGAGUUCUACAGUCCGACGAUCACUCAGACCAACUCGAGCACAACCCUUGGGUGGUUCACGAAACAUCUGAUCCAGUGAAAUAAACUCUAGGCUGGGUAAUAAUUCAAUAAACUGGCCAAAAGAGUCCAGCUUCAAAGCAUGCAACAGAGGAUUGAGCAUCA
B19: 57075034_57075154_704_CDS_ENSG00000112210_ENST00000317483|human|control|control (ssRNA)
RNA: GGGAGUUCUACAGUCCGACGAUCCUCCAAAAAAUCAACUCCAAUGGUUUUCUUGUAGUCUUUUGUAAAAAUGCCUUUGCAAUAUCGCUGAAUCAUACUUGAUUUUCCAACUGCUCCAUUCCCUACAACCACCAUCUUUAUGGCCAACAGAGGAUUGAGCAUCA
B20: chr11:85023558:85023559:-_ENSMUSG00000018481_ENSMUST00000018625|mus_hu|FALSE|FALSE (ssRNA)
RNA: GGGAGUUCUACAGUCCGACGAUCGCCAUGUUUUGAUAGUUUAUCCAUAUAUGUCUGAGCUAAUUUAAAUGUUUCUUCACCCAAAUGAUAUUUGCAGUUUCCAUUUCGCACAUGAAGCAACCUCACACAACAUUCUACUGCACGCAACAGAGGAUUGAGCAUCA
B21: chr1:80268134:80268135:-_ENSMUSG00000004364_ENSMUST00000163119|mus_hu|motif|central (ssRNA)
RNA: GGGAGUUCUACAGUCCGACGAUCGACUCUGUGUAGUUUGGAUGUGAAUUGAUCAUUAACUGUAAAUAUAUGACCAUUUUCGGUUUCCUUUGAUUUGGGUUCUUUUGUAAGAACCCGCUGUGUUGGUUUACCACAGGCGAGGGACAACAGAGGAUUGAGCAUCA
B22: chr17:72205386:72205387:+_ENSG00000172809_ENST00000584577|hu_mus|FALSE|FALSE (ssRNA)
RNA: GGGAGUUCUACAGUCCGACGAUCGGGUAGGGACUGCUUCAGCUUCUCUGCCUUUUCCUUGUCUGUGAUAACCAGGGUGUAAAGGUACCUGCUGCAGCGAACCUUGAACUUCACAUUAUCCUUGUUCUUCUUGAUCUUGACAGACAACAGAGGAUUGAGCAUCA

These binders were tested against T1, UNK ZnF1-3 (assay: nsRBNS (natural sequence RNA bind-n-seq); RBNS binding buffer (assumed for nsRBNS): 25 mM Tris pH 7.5, 150 mM KCl, 3 mM MgCl2, 0.01% Triton X-100, 500 ug/ml BSA, 20 U/ml SUPERase-In, 4 C; UNK is unkempt and MSI1 is Musashi-1; names of the RNAs are library labels; protein concentration not given here; high values mean tight binding).
Work on B1 yielded a binding signal of 1.29 enrichment R.
B2 showed a binding signal of 0.873 enrichment R.
B3 gave a binding signal of 1.58 enrichment R.
B4 showed a binding signal of 1.08 enrichment R.
In the case of B5, the binding signal is reported as 1 enrichment R.
B6 showed a binding signal of 0.789 enrichment R.
Binder B7 has a binding signal of 1.25 enrichment R.
Work on B8 yielded a binding signal of 1.36 enrichment R.
In the case of B9, the binding signal is reported as 0.659 enrichment R.
B10 gave a binding signal of 2.05 enrichment R.
B11 gave a binding signal of 1.82 enrichment R.
With B12 the binding signal was 1.38 enrichment R.
B13 was tested, and the binding signal was 1.92 enrichment R.
In the case of B14, the binding signal is reported as 1.41 enrichment R.
In the case of B15, the binding signal is reported as 1.55 enrichment R.
For B16, the binding signal was 1.88 enrichment R.
For B17, the binding signal was 1.12 enrichment R.
B18 gave a binding signal of 1.11 enrichment R.
Work on B19 yielded a binding signal of 0.575 enrichment R.
B20 was tested, and the binding signal was 1.12 enrichment R.
With B21 the binding signal was 0.438 enrichment R.
Work on B22 yielded a binding signal of 0.413 enrichment R.
